In PubChem BioAssay AID588453 (National Center for Advancing Translational Sciences (NCATS), 2011):
The whole screen tested about 390,000 compounds, of which about 4,000 (1%) were called active. The inconclusive results got no clear call from the source; some entries with a clear call stand among them for comparison. Calls come from the whole dose curve; as a rule, active = well fitted inhibition curve with a large enough effect; inconclusive = small, poorly fitted or top-dose-only effect; inactive = no such curve, though single readings can be large or run the other way. Potencies beside an inconclusive call are fits to weak or partial responses and may not hold up.

The compounds below were run against Thioredoxin reductase 1, cytoplasmic (Rattus norvegicus) (UniProt O89049) (assay: qHTS Assay for Inhibitors of Mammalian Selenoprotein Thioredoxin Reductase 1 (TrxR1): qHTS). Conditions: recombinant rTrxR1, NADPH fluorescence consumption, selenite substrate; series mostly up to 114 µM; activity change, negative = inhibition: at the top concentration.
Method in brief: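 Rat TrxR1 (90 nM in the dispensed reagent) was pre-reduced with 400 uM NADPH for 5 min at room temperature, then incubated with compound for 15 min. After 400 uM selenite was added, NADPH fluorescence (Ex 340/Em 450 nm) was followed for 8 min.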
% is set by controls: 0 for no effect and ±100 for the full control effect; potency is the fitted concentration of half-maximal effect; tags give direction and shape of the fitted curve.
Note: nearly all actives have a fitted effect of over 65% in size.

Sequence of UniProt O89049 (O89049 whole entry, looked up): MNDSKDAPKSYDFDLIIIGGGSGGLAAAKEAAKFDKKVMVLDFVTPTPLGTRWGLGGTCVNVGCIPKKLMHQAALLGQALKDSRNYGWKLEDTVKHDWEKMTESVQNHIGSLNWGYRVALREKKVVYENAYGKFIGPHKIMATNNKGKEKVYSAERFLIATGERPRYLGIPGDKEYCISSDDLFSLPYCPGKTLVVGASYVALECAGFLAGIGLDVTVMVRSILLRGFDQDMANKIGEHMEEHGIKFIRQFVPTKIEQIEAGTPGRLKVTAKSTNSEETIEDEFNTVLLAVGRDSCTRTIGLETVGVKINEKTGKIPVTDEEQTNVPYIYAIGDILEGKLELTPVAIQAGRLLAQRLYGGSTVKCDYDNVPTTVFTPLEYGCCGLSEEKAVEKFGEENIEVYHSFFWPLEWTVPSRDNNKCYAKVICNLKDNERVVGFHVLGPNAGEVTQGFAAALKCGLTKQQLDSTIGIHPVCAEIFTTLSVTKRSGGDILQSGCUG

Row | SMILES | activity change, negative = inhibition | Potency
1 | COc1cccc(/C=N/NC(=O)NC2CCCCC2)c1O | inactive: -7.13% | –
2 | COc1ccccc1N1CCN(C(=O)c2cccc(S(=O)(=O)NCc3cccnc3)c2)CC1 | – | inconclusive: 50.1 µM [inhibitor, partial curve]
3 | Cc1c(NC(=S)NC(=O)c2cc3ccccc3o2)cccc1C(=O)O | – | inconclusive: 79.4 µM [inhibitor, single point]
4 | CCOC(=O)C1=C(CSc2nc3c(cc2C#N)CCC3)OC(N)=C(C#N)C1c1ccccc1 (stereo not given) | – | inconclusive: 56.2 µM [inhibitor, partial curve]
5 | O=C1OC(N2CCN(Cc3ccccc3)CC2)c2ccccc21 (stereo not given) | – | inconclusive: 12.6 µM [inhibitor, full curve]
6 | CC1(C)CC(=O)c2cc(-c3nc(-c4ccc(Cl)cc4)cs3)c(=O)n(-c3ccc(Cl)cc3)c2C1 | inactive: 21.6% | –
7 | COCCNC(=S)N/N=C(\C)c1ccc(C)c([N+](=O)[O-])c1 | – | inconclusive: 79.4 µM [inhibitor, partial curve]
8 | Nc1ccc2c3c(cccc13)-c1ccccc1-2 | inactive: -1.83% | –
9 | Cc1cccc(OCC(=O)N(Cc2ccc(C)o2)C2CCS(=O)(=O)C2)c1 (stereo not given) | – | inconclusive: 50.1 µM [inhibitor, partial curve]
10 | CC(=O)c1ccc(NC(=S)Nc2ccc(Br)c(Cl)c2)cc1 | – | inconclusive: 70.8 µM [inhibitor, single point]
11 | CNC(=O)c1nnsc1S(=O)c1ccc(Cl)cc1 (stereo not given) | – | active: 0.355 µM
12 | CC(=O)C1=C(C)NC(SCC(=O)c2cc(Cl)ccc2Cl)=C(C#N)C1c1ccco1 (stereo not given) | – | inconclusive: 10 µM [inhibitor, partial curve]
13 | O=C(CSc1nnc2c3ccccc3c3ccccc3c2n1)Nc1ccccc1F | inactive: -19.7% | –
14 | O=C(O)CNC(=O)/C(=C/c1ccco1)NC(=O)/C=C/c1ccccc1 | inactive: 11.1% | –
15 | CCCCC(=O)NNC(=S)NC(=O)c1cccc([N+](=O)[O-])c1 | – | inconclusive: 56.2 µM [inhibitor, partial curve, poor fit]
16 | CCSc1nnc(-c2cccnc2)n1Cc1ccco1 | – | inconclusive: 63.1 µM [inhibitor, single point]
17 | CCOC(=O)c1cc2c(c(CCO)n1)[C@H](CCO)N(S(=O)C(C)(C)C)C2 (stereo not given in full) | – | inconclusive: 44.7 µM [inhibitor, partial curve]
18 | C=CCNC(=O)/C(C#N)=C\c1cc(Cl)c(O)c(OCC)c1 | – | inconclusive: 56.2 µM [inhibitor, partial curve, poor fit]
19 | CC(=O)Nc1nc(CC(C)C)cc(-c2ccco2)c1C#N | inactive: 30.1% [at 57.1 µM] | –
20 | COc1cc(/C=C2/C=Cc3ccccc32)ccc1N(C)C | – | inconclusive: 79.4 µM [inhibitor, single point]
21 | CCOC(=O)CSC1=C(C#N)C(c2ccccc2F)C(C(C)=O)=C(C)N1 (stereo not given) | – | inconclusive: 31.6 µM [inhibitor, single point]
22 | COc1cccc(C2=NN(C(=O)c3ccco3)C(c3ccco3)C2)c1 (stereo not given) | – | inconclusive: 20 µM [inhibitor, full curve]
23 | O=C(Cc1ccc(OCC2CCCCC2)cc1)NO | inactive: -3.33% | –

Row | SMILES | activity change, negative = inhibition | Potency
24 | Cc1n[nH]c(=O)c2c(NC(=O)COC(=O)c3ncc(Cl)c(Cl)c3Cl)oc(C)c12 | – | inconclusive: 79.4 µM [inhibitor, partial curve]
25 | O=C1CN(C(=O)Cn2ncc(Cl)c(Cl)c2=O)c2ccccc2N1 | – | inconclusive: 17.8 µM [inhibitor, single point]
26 | Cc1cc(N2CCCCC2)nc2ccc(NC(=O)c3cccc(F)c3)cc12 | – | inconclusive: 89.1 µM [inhibitor, partial curve, poor fit]
27 | COC(=O)c1cc2occc2n1CC(=O)N(C)C1CCCCC1 | – | inconclusive: 2.24 µM [inhibitor, full curve, poor fit]
28 | CCCC(=O)NC(c1ccc2c(c1)OCO2)c1cc(Cl)c2cccnc2c1O (stereo not given) | inactive: 1.35% | –
29 | Cc1ccc2c(c1)-c1c(ssc1=S)C(C)(C)N2C(=O)CSc1nncn1C | – | inconclusive: 79.4 µM [inhibitor, single point]
30 | CCCCN(C)S(=O)(=O)c1cc(-c2nnc3c4ccccc4c(C)nn23)ccc1C | inactive: 33.7% [at 57.1 µM] | –
31 | CCOc1ccc(C2/C(=C(\O)c3ccc4c(c3)OCCO4)C(=O)C(=O)N2CCCN2CCOCC2)cc1 (stereo not given) | – | inconclusive: 79.4 µM [inhibitor, single point]
32 | Cc1[nH]c2ccccc2c1/C=C/c1cc[n+](C)cc1 | inactive: -30.4% | –
33 | Cc1cc(C)c2cc(C(c3nnnn3CC3CCCO3)N3CCN4CCCC4C3)c(=O)[nH]c2c1 (stereo not given) | – | inconclusive: 35.5 µM [inhibitor, single point]
34 | COc1cnc(-c2ccccn2)nc1Sc1ccc(Cl)cc1 | – | inconclusive: 10 µM [inhibitor, full curve, poor fit]
35 | CC(=O)c1ccc(C2CC34CNS(=O)(=O)C3CC2O4)cc1 (stereo not given) | – | active: 28.2 µM
36 | NC1=C(Br)C(=O)c2ccccc2C1=O | inactive: 14.7% [at 11.4 µM] | –
37 | O=C1CS(=O)(=O)N(Cc2ccc(F)cc2)c2ccccc21 | – | active: 44.7 µM
38 | O=S(=O)(c1ccccc1)C(/C=N\O)/C=C/c1ccccc1 (stereo not given) | – | inconclusive: 15.8 µM [inhibitor, partial curve, poor fit]
39 | O=C(Nc1ccc(Br)c(Br)c1)C1CCCO1 (stereo not given) | inactive: 33.4% [at 57.1 µM] | –
40 | CCc1ccc(C(=O)CSc2ncn[nH]2)cc1 | – | inconclusive: 44.7 µM [inhibitor, partial curve, poor fit]
41 | Cc1ccc(C2C(C(=O)c3cc4ccccc4o3)=C(O)C(=O)N2CCN2CCOCC2)o1 (stereo not given) | – | active: 22.4 µM
42 | O=C(Nc1ccccc1N1CCOCC1)c1cnccn1 | inactive: 8.53% [at 57.1 µM] | –
43 | CC(C)C(c1nnnn1Cc1ccccc1)N1CCc2ccccc2C1 (stereo not given) | – | inconclusive: 39.8 µM [inhibitor, single point]
44 | O=C1CC(/C=C/c2ccccn2)=Nc2ccccc2N1 | – | inconclusive: 25.1 µM [inhibitor, partial curve, poor fit]
45 | Cc1[nH]c(=S)[nH]c(=O)c1Cc1c(O)ccc2ccccc12 | – | inconclusive: 8.91 µM [inhibitor, partial curve, poor fit]
